# Where two headings read alike, the source gives them in different places.
# B1: active MMP-9-binding peptide C-terminal conjugate M91005-Fc-01 (Fc fusion)
# chain: GSGMKETAAAKFERQHMDSPDLGTDDDDKAMADIGSANSDPQFGLFSKYRTPNCRKRGGPSCQMSYNPVCGSDMSTYANECTLCMKIREGGHNIKIIRNGPCGASAAAGGGGS[… human IgG1 Fc …]
# Columns and labels:
# active hMMP-9(cat)_His6 [1] = molecular target: T1, active hMMP-9(cat)_His6 (UniProt P14780 107-449); experiment: enzyme inhibition; substrate peptide
# active hMMP-9(cat)_His6 [2] = molecular target: T1, active hMMP-9(cat)_His6; experiment: enzyme inhibition; substrate peptide; remark: listed apart in the source
# T1 sequence (P14780 107-449): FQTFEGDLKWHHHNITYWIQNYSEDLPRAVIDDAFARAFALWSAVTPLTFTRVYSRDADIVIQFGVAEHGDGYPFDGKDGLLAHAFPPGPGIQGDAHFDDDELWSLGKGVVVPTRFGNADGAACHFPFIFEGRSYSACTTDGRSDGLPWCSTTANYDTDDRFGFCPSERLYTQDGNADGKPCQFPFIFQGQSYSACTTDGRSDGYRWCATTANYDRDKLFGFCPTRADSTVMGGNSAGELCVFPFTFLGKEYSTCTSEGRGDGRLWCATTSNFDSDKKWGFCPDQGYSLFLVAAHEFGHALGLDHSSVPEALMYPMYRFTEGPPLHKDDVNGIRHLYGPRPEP
binder,measurement,setting,value
B1,IC50,active hMMP-9(cat)_His6 [1],4.5 nM
same,IC50,active hMMP-9(cat)_His6 [2],1.8 nM

# Reference: patent publication US20200231654A1 (published 2020)
